This passage reports z-score results from PubChem BioAssay AID488969 (Vanderbilt High Throughput Screening Facility, 2010).

Over roughly 110,000 compounds, “z-score” has its median near -0.1; the highest 2% begin near 2. Some of the results follow.

For the test, the target named is Metabotropic glutamate receptor 8 (Rattus norvegicus) (UniProt P70579). The test can be described thus: mGluR8 Gi/Go-coupled signaling modulation – cell-based, rat, thallium flux, HTS, primary screen (AID 488969). As to conditions: HEK293 rat mGluR8, GIRK (G protein-gated inwardly rectifying potassium channel) thallium flux, FluoZin2; at 10 µM; stronger effect = higher value; submaximal glutamate (EC20) added with thallium.
Chain of UniProt P70579 (P70579 whole entry, looked up): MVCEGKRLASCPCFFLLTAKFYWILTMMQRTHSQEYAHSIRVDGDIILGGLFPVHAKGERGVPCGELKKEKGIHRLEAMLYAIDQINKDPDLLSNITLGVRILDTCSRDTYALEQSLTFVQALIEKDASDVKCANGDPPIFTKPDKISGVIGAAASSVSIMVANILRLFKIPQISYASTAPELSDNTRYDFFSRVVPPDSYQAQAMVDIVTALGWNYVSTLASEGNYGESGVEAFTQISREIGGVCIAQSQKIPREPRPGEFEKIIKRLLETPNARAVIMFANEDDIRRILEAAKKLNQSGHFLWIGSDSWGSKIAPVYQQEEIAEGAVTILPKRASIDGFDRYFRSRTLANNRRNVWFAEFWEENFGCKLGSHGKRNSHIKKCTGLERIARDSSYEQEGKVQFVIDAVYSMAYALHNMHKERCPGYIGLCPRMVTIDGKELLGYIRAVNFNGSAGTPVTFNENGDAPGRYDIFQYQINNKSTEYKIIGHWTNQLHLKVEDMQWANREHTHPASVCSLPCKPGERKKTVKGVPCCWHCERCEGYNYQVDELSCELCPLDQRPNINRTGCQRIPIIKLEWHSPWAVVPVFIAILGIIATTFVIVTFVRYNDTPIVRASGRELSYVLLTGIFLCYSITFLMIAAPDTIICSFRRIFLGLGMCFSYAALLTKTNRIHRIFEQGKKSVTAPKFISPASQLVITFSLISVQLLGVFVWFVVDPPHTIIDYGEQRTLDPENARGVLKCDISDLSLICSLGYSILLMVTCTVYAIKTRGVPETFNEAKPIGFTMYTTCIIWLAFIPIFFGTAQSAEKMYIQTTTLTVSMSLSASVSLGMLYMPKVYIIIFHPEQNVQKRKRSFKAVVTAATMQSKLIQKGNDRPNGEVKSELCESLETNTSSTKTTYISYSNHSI
In turn, `O=C(c1ccc(Cn2cc(Cl)cn2)cc1)N1CCN(c2ccccc2)CC1` returned a z-score of -0.125.

In turn, `Cc1c(Cl)c([N+](=O)[O-])nn1CCCC(=O)Nc1ccc(Cl)cc1Cl` yielded a z-score of -0.161. As for `O=C(NNc1c(Cl)cc(Cl)cc1Cl)c1cccc([N+](=O)[O-])c1`, the figure is -0.297; as for `CCOC(=O)Nc1nc(C)c(C(=O)N(C)C)s1`, -0.0609; as for `COC(=O)COc1ccc(S(=O)(=O)Nc2ccc(NC(C)=O)cc2)cc1C`, -0.154. The result for `CCN1CCN(C(c2cccs2)C(C)NC(=O)NC2CCCCC2)CC1` (centres undefined) reads 0.127; that for `C=CCn1c(Cc2ccc(OCC)cc2)nnc1SCC(N)=O`, 0.0956; that for `Cc1ccc(C(O)CN2C3=NCCCN3c3ccccc32)cc1` (centres undefined), 1.16. The result for `CCCCNC(=O)N1CCOCCOCCN(C(=O)NCCCC)CCOCCOCC1` reads 0.0635; that for `CC(C)Nc1nc2n(c(=O)n1)CCN2C(C)C`, -0.112; that for `O=C(OCCN1CCCC1=O)c1cc(F)c(F)c(F)c1F`, -0.0114. In turn, `COc1ccc(/C(C#N)=C/c2c(-c3ccc(Cl)cc3)nc3c(C)cccn23)cc1` had a z-score of 0.106. Take `CN(c1nc2ccccc2n2c(-c3ccco3)nnc12)S(=O)(=O)c1ccccc1`: the z-score was -0.388. For `COc1ccc(S(=O)(=O)Nc2ccc(C)cc2)cc1N(C)S(=O)(=O)c1ccc(Cl)cc1`, the z-score is -0.167. The compound `CCOC(=O)C(CC)Sc1ncnc2nc[nH]c12` (centres undefined) returned a z-score of -0.244. As for `Cn1c(Cn2nnc3ccccc32)nnc1SCC(=O)N1c2ccccc2Sc2ccccc21`, the figure is -0.24; as for `CN(CC(=O)Nn1cnnc1)S(=O)(=O)c1ccccc1`, -0.262. The result for `CCOC(=O)C1CCCN(C(=O)c2cc(Nc3ccc(OC)cc3)nc3ccccc23)C1` (centres undefined) reads 0.495; that for `C=CCCC(=O)Nc1nc(C)c(-c2csc(Nc3ccccc3OC)n2)s1`, -0.281; that for `O=S(=O)(c1cccc2cccnc12)N1CCOCC1`, -0.368.

In the case of `O=C(Nc1ccc2c(c1)OCO2)c1cc2nc(C3CC3)cc(C(F)(F)F)n2n1`, the z-score was -0.167.

Turning to `O=C1CC(C(=O)Nc2ncccn2)C(c2ccccc2)O1` (centres undefined), the z-score worked out at 0.0585.

Take `O=C(CNC1C(=O)Nc2ccccc21)Sc1ccccc1` (centres undefined): the z-score is 1.16. The result for `Cc1ccccc1CN(c1ccc(C(=O)Nc2ccccc2C(=O)N2CCCC2)cc1)S(C)(=O)=O` reads -0.451; that for `CC(C)C(NC(=O)c1ccccc1)C(=O)NC1=NCCS1` (centres undefined), -1.03; that for `CCS(=O)(=O)CCSc1nc2ccccc2s1`, 1.26. In turn, `CCCNC(=S)Nc1cccc(C(F)(F)F)c1` yielded a z-score of -0.0262. As for `CCCn1c(N)[n+](CC(=O)c2ccco2)c2ccccc21`, the figure is -0.369. The result for `O=C(CSc1nnc(Cc2cc(=O)[nH]c(=O)[nH]2)n1-c1ccc(F)cc1)N1CCCCC1` reads 0.143.

As for `CN(Cc1ccccc1)S(=O)(=O)c1ccc2c(c1)NC(=O)CC(=O)N2`, the z-score is 0.0876.

In turn, `CCC(=O)Nc1cccc(NC(=O)c2ccccc2Br)c1` returned a z-score of 0.164. The compound `Cc1nc2cc(NC(=O)N3CC4(C)CC3CC(C)(C)C4)ccc2n1C` (centres undefined) returned a z-score of -0.00901. As for `COc1ccc(C(=O)CN2CCN(S(=O)(=O)c3cccc([N+](=O)[O-])c3)CC2)cc1OC`, the figure is 0.997; as for `Clc1ccc(-c2nc3ncccn3c2Nc2ccc3c(c2)OCO3)cc1`, -0.0933; as for `COc1ccc(/C=C/C(=O)Nc2ccccc2C(F)(F)F)cc1OC`, -0.0897. The result for `CCOc1cc(NC(=S)Nc2cccc(OC)c2)c(OCC)cc1NC(=O)C1CC1` reads -0.0916; that for `CCc1ccccc1NC(=O)c1ccc(CN2CCC(Cc3ccccc3)CC2)cc1`, 0.341; that for `O=C(NCCO)c1scc2c1OCCO2`, 0.107. For the compound `CCNc1ccccc(-c2ccc3ccccc3n2)c1=O`, the z-score is -0.172.

In turn, `CCn1c(=O)n(CC)c2cc(S(=O)(=O)Nc3c(C)cccc3C)ccc21` showed a z-score of 1.36. As for `COc1ccc(CN=C2NC(=O)CC(C(=O)Nc3ccc(Cl)cc3)S2)cc1` (centres undefined), the figure is -0.983; as for `CCOC(=O)c1[nH]c2ccccc2c1N=C(C)N(CC)CC`, -0.0918; as for `Cc1cc(N(CC(=O)NC(C)C)S(C)(=O)=O)ccc1Br`, 0.0847.

For the compound `COc1ccc(C(=O)Nc2nc3ccccc3[nH]2)cc1OC`, the z-score is -0.287. The result for `O=C1N(CN2C(=O)C3(OCCO3)c3ccccc32)c2ccccc2C12OCCO2` reads 0.0746; that for `Cc1ccccc1N(CC(=O)NC1CCCC1)C(=O)C1(C)CC(=O)N=C2C=CC=CN21` (centres undefined), -0.259. The result for `CCOc1ccccc1NC(=O)CSc1nc(N)c(C#N)cc1C#N` reads 0.579; that for `COc1ccc(C(=O)Cn2nnc(-c3ccccc3NC(=O)c3ccco3)n2)cc1`, -0.311.

In turn, `CCOc1ccccc1NC(=S)N(Cc1cc2ccc(C)cc2[nH]c1=O)CC1CCCN1CC` (centres undefined) showed a z-score of -0.724. As for `CCCC(=O)Nc1nc(C)c(-c2csc(Nc3ccccc3C)n2)s1`, the figure is -0.0857; as for `Cc1cccc(-n2c(N)cc(=O)nc2SCC(=O)Nc2nnc(C)s2)c1`, 0.523; as for `Cc1nc(SC(C(=O)c2ccccc2)c2ccccc2)n[nH]1` (centres undefined), -0.522. `CCOc1cc2[nH]c(=O)n(CCCCC(=O)N3CCCCCC3)c(=O)c2cc1OCC`: the z-score turned out to be 2.21. The result for `CC1CCCN(c2ccc(/C=C(\C#N)c3nn(-c4ccccc4)c(N)c3C#N)cc2[N+](=O)[O-])C1` (centres undefined) reads 0.046; that for `COc1ccc(NC(=O)CCC(=O)c2cccs2)cc1S(=O)(=O)Nc1ccccc1Cl`, -0.34. As for `O=C(NCc1ccco1)c1cc2c(s1)CCCCC2`, the figure is 0.555.

The compound `Cc1cc(C)cc(N(C(=O)C(F)(F)F)C(C(=O)NC2CCCCC2)c2cccs2)c1` (centres undefined) showed a z-score of -0.109. The result for `Cc1ccc(NC(=O)C2C(=O)N(CCO)C3(C)CC2c2ccccc2O3)cc1` (centres undefined) reads -0.0277.

With `COc1ccc(N2CCN(C(=O)c3ccc(-n4nc(C)cc4C)cc3)CC2)cc1`, the z-score is -0.108.

For `O=C(Nc1nnc(-c2ccc(Cl)s2)o1)C1CCCCC1`, the z-score turned out to be 1.92.

Compound `COC(=O)C1=C(C)NC(C)=C(C(=O)OC)C1c1ccc(OC(=O)c2ccco2)cc1` showed a z-score of -0.519. The result for `O=C(CCC(=O)NNC(=O)Nc1ccc(Cl)cc1)NCc1ccccc1` reads -0.164; that for `CCOC(=O)c1c(-c2ccc(F)cc2)csc1NC(=O)c1c(-c2ccccc2)noc1C`, -0.0698; that for `CC(C(=O)NCc1cccs1)N1C(=O)c2ccccc2C1=O` (centres undefined), 0.434. `COc1ccccc1N1CCN(c2ncnc3c2oc2ccccc23)CC1` had a z-score of -0.369. As for `CCCOc1ccc(C2/C(=C(/O)c3ccccc3)C(=O)C(=O)N2CCCN(C)C)cc1OC` (centres undefined), the figure is -0.0681; as for `CC(=O)NNc1nc(-c2ccccc2)c2cc(Br)ccc2n1`, -0.595. As for `O=C(CCNc1n[nH]c(=O)[nH]c1=O)N1CCCCC1`, the z-score worked out at 1.27. For `CCNc1nc(OCCNC(C)=O)nc(N(C)C)n1`, the z-score is 0.738.
